# According to the supplement of paper PMC8728848:
# Some of the results follow.
# Experiments:
# Experiment in all cases: glycan array binding signal (z-score within array); higher = stronger binding
# Settings in all cases: glycan notation: IUPAC condensed, linker removed
# [1] = molecular target: Neu5Ac(a2-3)Gal(b1-4)GlcNAc(b1-2)[Neu5Ac(a2-3)Gal(b1-4)GlcNAc(b1-4)]Man(a1-3)[GlcNAc(b1-4)][Neu5Ac(a2-3)Gal(b1-4)GlcNAc(b1-4)Man(a1-6)]Man(b1-4)GlcNAc(b1-4)GlcNAc
# In short: (§1)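 Glycan array data came from 3228 arrays in the Consortium for Functional Glycomics database, and only arrays with an available protein sequence were kept. Glycan names were put into IUPAC-condensed notation, and columns mapping to the same glycan were averaged. The binding signal is a within-array Z-score, averaged across arrays of one protein sequence run at different concentrations or buffers and across linkers. A negative Z-score can be read as non-binding.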
# [2] = molecular target: Neu5Ac(a2-3)Gal(b1-4)GlcNAc(b1-2)[Neu5Ac(a2-3)Gal(b1-4)GlcNAc(b1-6)]Man(a1-6)[Neu5Ac(a2-3)Gal(b1-4)GlcNAc(b1-2)Man(a1-3)]Man(b1-4)GlcNAc(b1-4)GlcNAc
# In short: as §1
# [3] = molecular target: Neu5Ac(a2-3)Gal(b1-4)GlcNAc(b1-2)[Neu5Ac(a2-3)Gal(b1-4)GlcNAc(b1-6)]Man(a1-6)[Neu5Ac(a2-3)Gal(b1-4)GlcNAc(b1-2)Man(a1-3)][GlcNAc(b1-4)]Man(b1-4)GlcNAc(b1-4)GlcNAc
# In short: as §1
# [4] = molecular target: Neu5Ac(a2-3)Gal(b1-4)GlcNAc(b1-3)Gal
# In short: as §1
# [5] = molecular target: Neu5Ac(a2-3)Gal(b1-4)GlcNAc(b1-3)Gal(b1-3)GlcNAc
# In short: as §1
# [6] = molecular target: Neu5Ac(a2-3)Gal(b1-4)GlcNAc(b1-3)Gal(b1-4)GlcNAc
# In short: as §1
# [7] = molecular target: Neu5Ac(a2-3)Gal(b1-4)GlcNAc(b1-3)Gal(b1-4)GlcNAc(b1-2)Man(a1-3)[Neu5Ac(a2-3)Gal(b1-4)GlcNAc(b1-3)Gal(b1-4)GlcNAc(b1-2)Man(a1-6)]Man(b1-4)GlcNAc(b1-4)GlcNAc
# In short: as §1
# [8] = molecular target: Neu5Ac(a2-3)Gal(b1-4)GlcNAc(b1-3)Gal(b1-4)GlcNAc(b1-3)Gal(b1-4)GlcNAc
# In short: as §1
# [9] = molecular target: Neu5Ac(a2-3)Gal(b1-4)GlcNAc(b1-3)Gal(b1-4)GlcNAc(b1-3)Gal(b1-4)GlcNAc(b1-2)Man(a1-3)[Neu5Ac(a2-3)Gal(b1-4)GlcNAc(b1-3)Gal(b1-4)GlcNAc(b1-3)Gal(b1-4)GlcNAc(b1-2)Man(a1-6)]GalNAc
# In short: as §1
# [10] = molecular target: Neu5Ac(a2-3)Gal(b1-4)GlcNAc(b1-3)Gal(b1-4)GlcNAc(b1-3)GalNAc
# In short: as §1
# [11] = molecular target: Neu5Ac(a2-3)Gal(b1-4)GlcNAc(b1-3)Gal(b1-4)GlcNAc(b1-3)[Neu5Ac(a2-3)Gal(b1-4)GlcNAc(b1-3)Gal(b1-4)GlcNAc(b1-6)]GalNAc
# In short: as §1
# [12] = molecular target: Neu5Ac(a2-3)Gal(b1-4)GlcNAc(b1-3)Gal(b1-4)GlcNAc(b1-6)[Gal(b1-3)]GalNAc
# In short: as §1
# [13] = molecular target: Neu5Ac(a2-3)Gal(b1-4)GlcNAc(b1-3)Gal(b1-4)[Fuc(a1-3)]GlcNAc
# In short: as §1
# [14] = molecular target: Neu5Ac(a2-3)Gal(b1-4)GlcNAc(b1-3)GalNAc
# In short: as §1
# [15] = molecular target: Neu5Ac(a2-3)Gal(b1-4)GlcNAc(b1-3)[Neu5Ac(a2-3)Gal(b1-4)GlcNAc(b1-6)]GalNAc
# In short: as §1
# [16] = molecular target: Neu5Ac(a2-3)Gal(b1-4)GlcNAc(b1-6)GalNAc
# In short: as §1
# [17] = molecular target: Neu5Ac(a2-3)Gal(b1-4)GlcNAc(b1-6)[Gal(b1-3)]GalNAc
# In short: as §1
# [18] = molecular target: Neu5Ac(a2-3)Gal(b1-4)GlcNAc(b1-6)[Neu5Ac(a2-3)Gal(b1-3)]GalNAc
# In short: as §1
# [19] = molecular target: Neu5Ac(a2-3)Gal(b1-4)GlcNAc6S
# In short: as §1
# [20] = molecular target: Neu5Ac(a2-3)Gal(b1-4)[Fuc(a1-3)]GlcNAc
# In short: as §1
# [21] = molecular target: Neu5Ac(a2-3)Gal(b1-4)[Fuc(a1-3)]GlcNAc(b1-2)Man
# In short: as §1
# [22] = molecular target: Neu5Ac(a2-3)Gal(b1-4)[Fuc(a1-3)]GlcNAc(b1-3)Gal
# In short: as §1
# [23] = molecular target: Neu5Ac(a2-3)Gal(b1-4)[Fuc(a1-3)]GlcNAc(b1-3)Gal(b1-4)GlcNAc
# In short: as §1
# [24] = molecular target: Neu5Ac(a2-3)Gal(b1-4)[Fuc(a1-3)]GlcNAc(b1-3)Gal(b1-4)[Fuc(a1-3)]GlcNAc(b1-3)Gal(b1-4)[Fuc(a1-3)]GlcNAc
# In short: as §1
# [25] = molecular target: Neu5Ac(a2-3)Gal(b1-4)[Fuc(a1-3)]GlcNAc(b1-3)GalNAc
# In short: as §1
# [26] = molecular target: Neu5Ac(a2-3)Gal(b1-4)[Fuc(a1-3)]GlcNAc(b1-6)[Gal(b1-3)]GalNAc
# In short: as §1
# [27] = molecular target: Neu5Ac(a2-3)Gal(b1-4)[Fuc(a1-3)]GlcNAc(b1-6)[Neu5Ac(a2-3)Gal(b1-3)]GalNAc
# In short: as §1
# [28] = molecular target: Neu5Ac(a2-3)Gal(b1-4)[Fuc(a1-3)]GlcNAc6S
# In short: as §1
# [29] = molecular target: Neu5Ac(a2-3)Gal6S(b1-4)GlcNAc
# In short: as §1
# [30] = molecular target: Neu5Ac(a2-3)Gal6S(b1-4)[Fuc(a1-3)]GlcNAc
# In short: as §1
# [31] = molecular target: Neu5Ac(a2-3)GalNAc
# In short: as §1
# [32] = molecular target: Neu5Ac(a2-3)GalNAc(b1-4)GlcNAc
# In short: as §1
# [33] = molecular target: Neu5Ac(a2-3)[GalNAc(b1-4)]Gal(b1-4)Glc
# In short: as §1
# [34] = molecular target: Neu5Ac(a2-3)[GalNAc(b1-4)]Gal(b1-4)GlcNAc
# In short: as §1
# [35] = molecular target: Neu5Ac(a2-3)[GalNAc(b1-4)]Gal(b1-4)GlcNAc(b1-3)GalNAc
# In short: as §1
# [36] = molecular target: Neu5Ac(a2-3)[Neu5Ac(a2-6)]GalNAc
# In short: as §1
# [37] = molecular target: Neu5Ac(a2-6)Gal
# In short: as §1
binder,measurement,setting,value
PX14375l-pdi-526-25-526 (Parabacteroides distasonis) (protein) DEEPKSTLTDVAYYKTQSQMESNVNYLYRTGAIGSYVDFGSAYIGPFASIQEELTGYFSNSYEGQEIVCRYTRELTRQQNTMQLASKMDKVWDDCYRGINVANGAIKHMPEVPMDQATADRLTAEAKFFRAFNYFYLVKTFGAVPFYTDPYELAENMELPRTETSTIYNQIESDLKDAMNVLPEATFAANGHRITKYVAAMTLTDVYMYQHKYAEAAETVRIVVNSNHKLTTNDDLAMNSAFNKLRSTDDLDEAIYAYEYDNQISPSNWLPTYAFDGDASSNGLFGTYAITQKVHGPNDRYLNIYESNDLRRQPNQFYHWTYTNPKTGKVWNSVGNAACCWYYYDEDALLTTGRGTKDWNVYRYAEALLDAAESIAQSTGVTAEAAGYLAQVKARANMEGKTAAEIASSLQSMGKQAFIEECWTERLRELPLEFKMWDMCVRTGMFPNISETTPGQVTYIPLVGAKNASGATIKESDLLWPLSVNEIQRNPSLTQNEGYSAK,glycan array binding signal (z-score),[1],-0.392
same,glycan array binding signal (z-score),[2],0.151
same,glycan array binding signal (z-score),[3],-0.364
same,glycan array binding signal (z-score),[4],-0.144
same,glycan array binding signal (z-score),[5],-0.252
same,glycan array binding signal (z-score),[6],-0.289
same,glycan array binding signal (z-score),[7],-0.162
same,glycan array binding signal (z-score),[8],-0.296
same,glycan array binding signal (z-score),[9],1.67
same,glycan array binding signal (z-score),[10],-0.387
same,glycan array binding signal (z-score),[11],-0.339
same,glycan array binding signal (z-score),[12],0.041
same,glycan array binding signal (z-score),[13],-0.132
same,glycan array binding signal (z-score),[14],-0.257
same,glycan array binding signal (z-score),[15],-0.205
same,glycan array binding signal (z-score),[16],-0.422
same,glycan array binding signal (z-score),[17],0.031
same,glycan array binding signal (z-score),[18],-0.135
same,glycan array binding signal (z-score),[19],-0.299
same,glycan array binding signal (z-score),[20],-0.14
same,glycan array binding signal (z-score),[21],-0.069
same,glycan array binding signal (z-score),[22],-0.337
same,glycan array binding signal (z-score),[23],0.129
same,glycan array binding signal (z-score),[24],-0.172
same,glycan array binding signal (z-score),[25],0.002
same,glycan array binding signal (z-score),[26],0.593
same,glycan array binding signal (z-score),[27],0.444
same,glycan array binding signal (z-score),[28],-0.095
same,glycan array binding signal (z-score),[29],-0.067
same,glycan array binding signal (z-score),[30],-0.289
same,glycan array binding signal (z-score),[31],0.09
same,glycan array binding signal (z-score),[32],-0.076
same,glycan array binding signal (z-score),[33],-0.137
same,glycan array binding signal (z-score),[34],-0.307
same,glycan array binding signal (z-score),[35],-0.169
same,glycan array binding signal (z-score),[36],-0.316
same,glycan array binding signal (z-score),[37],0.084
